# Assay results taken from the supplement of paper PMC8728848.
# This is one part of the list.
# B1: PX9961X-pdi-531-24-531 (Parabacteroides distasonis) (protein)
# chain: DLTEEIHSSVIAENYYNNAGEVMAAMMRPWGHFCGTMQVAQSPWSCNELSSDCAAWPQKGRHGYDNGDWIRLHRHQWIPTDGQVVDAWKKLFEGIGYANNFLTDTENIDFEALQVPMSKAQAQAEMRVYRAYCYWYVMDMFGTAPICEKIGEINPSSKSRAELFAWIEKELNESIPSLSESKTETYGRVSKWGAYALLARLYLNAEIYTGQARWDDCIAACDELAKGGFALDKKWNDTFRADNDKRSTEIIWSIVYDEVYAKGMGWYQRWLHYAHQTGWDLQSGPWNGLVTQPTFYDSFADNDLRKIEGFLIGKQYPRKVDENGNYYYDTTAEPLKGSEEYNGQDLVFVNYIKSMTEGEENSGARSIKYEIQPGTTGDMNNDWVMFRYSEVIYNKAEALMRKNGGKATQEVVDMINSVRQRSFKAEDWEKAKYTTATLTMDEFLAEKGREFAFEGIRRTDLVRFNKFVTTSWWDKTASNEPKRNIFPIPQRQLDANANLSPNEANSLF
# How the values were obtained:
# Test in all cases: glycan array binding signal (z-score within array); higher = stronger binding
# Conditions in all cases: glycan notation: IUPAC condensed, linker removed
# [1] = target: Gal(b1-4)GlcNAc(b1-6)GalNAc
# Procedure, shortened: (§1)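 The binding signal is a Z-score computed within each array. Data were drawn from 3228 arrays in the Consortium for Functional Glycomics database, restricted to those with a known protein sequence. Scores were averaged over arrays of the same protein sequence at different concentrations or buffers, and over linkers, and negative values can be taken as non-binding.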
# [2] = target: Gal(b1-4)GlcNAc(b1-6)[Gal(b1-3)]GalNAc
# Procedure, shortened: as §1
# [3] = target: Gal(b1-4)GlcNAc(b1-6)[Gal(b1-4)GlcNAc(b1-3)]GalNAc
# Procedure, shortened: as §1
# Gal(b1-4)GlcNAc6P = target: Gal(b1-4)GlcNAc6P
# Procedure, shortened: as §1
# Gal(b1-6)Gal = target: Gal(b1-6)Gal
# Procedure, shortened: as §1
# Gal3S(b1-3)GalNAc = target: Gal3S(b1-3)GalNAc
# Procedure, shortened: as §1
# Gal3S(b1-3)GlcNAc = target: Gal3S(b1-3)GlcNAc
# Procedure, shortened: as §1
# [4] = target: Gal3S(b1-3)[Fuc(a1-4)]GlcNAc
# Procedure, shortened: as §1
# Gal3S(b1-4)Glc = target: Gal3S(b1-4)Glc
# Procedure, shortened: as §1
# Gal3S(b1-4)Glc6S = target: Gal3S(b1-4)Glc6S
# Procedure, shortened: as §1
# Gal3S(b1-4)GlcNAc = target: Gal3S(b1-4)GlcNAc
# Procedure, shortened: as §1
# [5] = target: Gal3S(b1-4)[Fuc(a1-3)]Glc6S
# Procedure, shortened: as §1
# [6] = target: Gal3S(b1-4)[Fuc(a1-3)]GlcNAc
# Procedure, shortened: as §1
# [7] = target: Gal3S(b1-4)[Fuc(a1-3)]GlcNAc6S
# Procedure, shortened: as §1
# Gal3S4S(b1-4)GlcNAc = target: Gal3S4S(b1-4)GlcNAc
# Procedure, shortened: as §1
# Gal3S6S(b1-4)GlcNAc = target: Gal3S6S(b1-4)GlcNAc
# Procedure, shortened: as §1
# Gal3S6S(b1-4)GlcNAc6S = target: Gal3S6S(b1-4)GlcNAc6S
# Procedure, shortened: as §1
# Gal4S(b1-4)GlcNAc = target: Gal4S(b1-4)GlcNAc
# Procedure, shortened: as §1
# Gal4S6S(b1-4)GlcNAc = target: Gal4S6S(b1-4)GlcNAc
# Procedure, shortened: as §1
# Gal6P(b1-4)GlcNAc = target: Gal6P(b1-4)GlcNAc
# Procedure, shortened: as §1
# Gal6S(b1-3)GlcNAc = target: Gal6S(b1-3)GlcNAc
# Procedure, shortened: as §1
# Gal6S(b1-3)GlcNAc6S = target: Gal6S(b1-3)GlcNAc6S
# Procedure, shortened: as §1
# Gal6S(b1-4)Glc = target: Gal6S(b1-4)Glc
# Procedure, shortened: as §1
# Gal6S(b1-4)Glc6S = target: Gal6S(b1-4)Glc6S
# Procedure, shortened: as §1
# Gal6S(b1-4)GlcNAc = target: Gal6S(b1-4)GlcNAc
# Procedure, shortened: as §1
# Gal6S(b1-4)GlcNAc6S = target: Gal6S(b1-4)GlcNAc6S
# Procedure, shortened: as §1
# GalNAc(a1-3)Gal = target: GalNAc(a1-3)Gal
# Procedure, shortened: as §1
# GalNAc(a1-3)GalNAc = target: GalNAc(a1-3)GalNAc
# Procedure, shortened: as §1
# [8] = target: GalNAc(a1-3)GalNAc(b1-3)Gal(a1-4)Gal(b1-4)Glc
# Procedure, shortened: as §1
# [9] = target: GalNAc(a1-3)GalNAc(b1-3)Gal(a1-4)Gal(b1-4)GlcNAc
# Procedure, shortened: as §1
# GalNAc(b1-3)Gal = target: GalNAc(b1-3)Gal
# Procedure, shortened: as §1
# [10] = target: GalNAc(b1-3)Gal(a1-4)Gal(b1-4)GlcNAc
# Procedure, shortened: as §1
# [11] = target: GalNAc(b1-3)Gal(a1-4)Gal(b1-4)GlcNAc(b1-3)Gal(b1-4)Glc
# Procedure, shortened: as §1
# [12] = target: GalNAc(b1-3)Gal(a1-6)Gal(b1-4)Glc
# Procedure, shortened: as §1
# GalNAc(b1-3)GalNAc = target: GalNAc(b1-3)GalNAc
# Procedure, shortened: as §1
# GalNAc(b1-3)GlcNAc = target: GalNAc(b1-3)GlcNAc
# Procedure, shortened: as §1
# GalNAc(b1-4)Gal(b1-4)Glc = target: GalNAc(b1-4)Gal(b1-4)Glc
# Procedure, shortened: as §1
# GalNAc(b1-4)GlcNAc = target: GalNAc(b1-4)GlcNAc
# Procedure, shortened: as §1
binder,measurement,setting,value
B1,glycan array binding signal (z-score),[1],-0.012
same,glycan array binding signal (z-score),[2],-0.374
same,glycan array binding signal (z-score),[3],1.02
same,glycan array binding signal (z-score),Gal(b1-4)GlcNAc6P,-0.916
same,glycan array binding signal (z-score),Gal(b1-6)Gal,-0.051
same,glycan array binding signal (z-score),Gal3S(b1-3)GalNAc,-0.342
same,glycan array binding signal (z-score),Gal3S(b1-3)GlcNAc,-0.546
same,glycan array binding signal (z-score),[4],0.453
same,glycan array binding signal (z-score),Gal3S(b1-4)Glc,0.131
same,glycan array binding signal (z-score),Gal3S(b1-4)Glc6S,0.067
same,glycan array binding signal (z-score),Gal3S(b1-4)GlcNAc,-0.651
same,glycan array binding signal (z-score),[5],1.07
same,glycan array binding signal (z-score),[6],-0.375
same,glycan array binding signal (z-score),[7],0.347
same,glycan array binding signal (z-score),Gal3S4S(b1-4)GlcNAc,-1.15
same,glycan array binding signal (z-score),Gal3S6S(b1-4)GlcNAc,0.736
same,glycan array binding signal (z-score),Gal3S6S(b1-4)GlcNAc6S,1.11
same,glycan array binding signal (z-score),Gal4S(b1-4)GlcNAc,-0.114
same,glycan array binding signal (z-score),Gal4S6S(b1-4)GlcNAc,-0.746
same,glycan array binding signal (z-score),Gal6P(b1-4)GlcNAc,-0.516
same,glycan array binding signal (z-score),Gal6S(b1-3)GlcNAc,0.59
same,glycan array binding signal (z-score),Gal6S(b1-3)GlcNAc6S,-0.672
same,glycan array binding signal (z-score),Gal6S(b1-4)Glc,0.376
same,glycan array binding signal (z-score),Gal6S(b1-4)Glc6S,0.03
same,glycan array binding signal (z-score),Gal6S(b1-4)GlcNAc,0.29
same,glycan array binding signal (z-score),Gal6S(b1-4)GlcNAc6S,-0.681
same,glycan array binding signal (z-score),GalNAc(a1-3)Gal,0.96
same,glycan array binding signal (z-score),GalNAc(a1-3)GalNAc,0.11
same,glycan array binding signal (z-score),[8],-0.276
same,glycan array binding signal (z-score),[9],0.213
same,glycan array binding signal (z-score),GalNAc(b1-3)Gal,0.101
same,glycan array binding signal (z-score),[10],-0.236
same,glycan array binding signal (z-score),[11],-0.234
same,glycan array binding signal (z-score),[12],2.61
same,glycan array binding signal (z-score),GalNAc(b1-3)GalNAc,-0.252
same,glycan array binding signal (z-score),GalNAc(b1-3)GlcNAc,-0.514
same,glycan array binding signal (z-score),GalNAc(b1-4)Gal(b1-4)Glc,-0.106
same,glycan array binding signal (z-score),GalNAc(b1-4)GlcNAc,0.402
